# Test results from ChEMBL document CHEMBL4888484, “Replenishing the malaria drug discovery pipeline: Screening and hit evaluation of the MMV Hit Generation Library 1 (HGL1) against asexual blood stage Plasmodium falciparum ,using a nano luciferase reporter read-out” (2022).
# About 540 (0.36%) of roughly 150,000 compounds showed an effect of 50% or more. This is one part of the list.
# Test system: Plasmodium falciparum
# Test: Primary screen in NF54 nanoGlo assay, in single point, at 2uM, 72h; a lower Z score goes with more inhibition
# Format: functional, Erythrocyte
# Conditions: timepoint 72 hour
SMILES,% Inhibition [%],Z score
Cc1ccc(NC(=O)CC(C2CC2)C2CC2)nc1,5,-0.69
CC(C)N(CCOCCO)c1ccc(C#N)nn1,-3,0.5
Clc1cccc(OC2CN([C@H]3CCN(c4ccccc4)C3)C2)c1,-9,1.21
O=C(NCC1(c2c(F)cccc2F)CCCC1)[C@H]1CCS(=O)(=O)C1,-8,0.85
Cc1cccc(N2CCN(C(=O)c3ccc(C)c(NC(=O)c4nsc5ccccc45)c3)C[C@@H]2C)c1,-4,0.79
Cn1c([C@H]2CCN(Cc3ccc(Cl)cc3)C2)nc2ccccc21,33,-3.7
Cn1ncc2c(=O)[nH]c(CN3CCN(C(=O)CC(C)(C)C)CC3)nc21,-8,1.53
Cn1nc(C(=O)N2CCC(Cc3ccccn3)CC2)cc1OC(F)F,7,-1.03
CCc1c(C(=O)N2C[C@@H](CN3CCCCC3)[C@@H](CO)C2)csc1C,-2,0.32
O=C(O)c1csc(CN2C3CCC2CC(CC(F)F)C3)n1 (stereo not drawn),1,-0.21
O=C(Nc1ccn(CC(F)(F)F)n1)N1CCC[C@@H]1CN1CCCC1,-4,0.45
COCCN1CCC(CN(C[C@H]2CCCO2)C(=O)Cc2c(F)ccc(F)c2F)CC1,-4,0.53
O=C(NCCc1c[nH]c2ccccc12)c1ccoc1,-2,0.37
O=C(Nc1cnc(-n2ccnc2)nc1)c1ccncc1,-17,3.14
COc1ccc(CN2CC(N3CCNC3=O)C2)c(OC(F)F)c1,-9,1.31
Nc1c(Oc2ccccc2)ncnc1-c1ccccc1,-2,0.34
Cc1cc(=O)c(C(=O)NCC2CCCCC2OCC(F)(F)F)c[nH]1 (stereo not drawn),-12,1
O=C(c1ccoc1C1CC1)N1CCOc2cc(F)c(F)cc21,-15,1.88
O=C(NC1CCCCC1Oc1ccccc1)N1CCC(CCO)C1 (stereo not drawn),-3,0.35
O=C(NC1CCN(C(=O)c2cc(-c3ccccc3)n[nH]2)CC1)c1ccc2ccccc2c1,-5,0.69
COc1ccc(-c2nn(-c3ccccc3C)cc2CN(C)Cc2nccn2C)cc1F,-8,1.05
CC(C)(C)c1ccc([C@@]2(C)NC(=O)N(CN(CC#N)C3CC3)C2=O)cc1,-31,3.64
CCOc1ccccc1-c1nccn1[C@H]1CC(=O)N(CCOC)C1,-11,1.49
Cc1ccc(S(=O)(=O)N2C[C@@H](C(=O)NCc3ccccc3C)Oc3ccc(C)cc32)cc1,-13,1.71
O=S1(=O)CC(c2nc(-c3ccsc3)no2)C(C(F)(F)F)C1 (stereo not drawn),-4,0.71
O=S1(=O)CC[C@H](c2noc(C3CCCCCC3)n2)C1,22,-2.5
NC(=NCc1cc2cc(F)ccc2s1)N1CCOCC1,-5,0.49

SMILES,% Inhibition [%],Z score
C[C@@H](CCCO)NS(=O)(=O)c1cc(F)ccc1Br,-16,1.83
Cc1ccnc(N2CCN(S(=O)(=O)Cc3ccon3)CC2)c1,33,-0.62
COc1ccc(-c2cccc(C(=O)N3CCN[C@@H](C)C3)c2)c(OC)c1,-14,2.1
O=S1(=O)CCC(CN[C@H]2CCCc3sccc32)CC1,-14,1.84
CCOc1cccc2c1OCC(C(=O)N1CCC(CC(N)=O)CC1)=C2,4,-0.47
CCCN(CC(=O)N1CCn2cccc2[C@H]1c1ccc(C(C)(C)C)cc1)C(=O)C1CCCC1,-1,0.09
N#Cc1ccc(-c2nnc(Cn3ccnc3)o2)cc1,-7,0.92
N#Cc1ccc(NC(=O)c2ccc(-c3noc(C4CCCC4)n3)cc2)cc1,-4,0.75
Cc1ccc(-c2nc3n(CC(=O)N4CCOCC4)c4c(c(=O)n3n2)CCC4)cc1,6,-0.74
CCOC(=O)c1ccc(NS(=O)(=O)C2(COC)CC2)c(O)c1,-1,0.07
Cc1ccc2ncccc2c1S(=O)(=O)N1CC(N2CCOCC2)C1,-10,1.93
OCCOC1(CNc2c(F)cncc2Cl)CCOCC1,-13,1.52
Cn1nccc1[C@@H](O)CNC(=O)Nc1ncc(C2CCCCC2)s1,1,-0.18
CN(Cc1cccs1)C(=O)CC1CCCC1,-3,0.53
N#CC1CCC(N2CCCC(c3n[nH]c(-c4ccccc4)n3)C2)C1 (stereo not drawn),-22,3.42
Cc1oncc1C(=O)N1CCC[C@H](n2cnc3ccccc3c2=O)C1,-9,1.57
CC(C)c1coc(NC(=O)c2cccn(CC(F)(F)F)c2=O)n1,4,-0.52
CCc1ccc(-c2nc3sc(-c4ccc(CC)cc4)nc3s2)cc1,-18,1.98
O=C(CCC1CCCC1)N(CCN1CCCCC1)C1CCOCC1,-8,1.2
CC[C@H](C)N(Cc1cccc(OS(=O)(=O)c2cccc(C(F)(F)F)c2)c1)C(=O)Nc1ccccc1OC,-1,0.23
Cc1nn(Cc2c(F)cccc2Cl)c(C)c1NC(=O)C1CCN(S(C)(=O)=O)CC1,3,-0.37
COc1ccc(OC[C@@H](O)CN2CCC(O)CC2)c(CNCc2cc(F)ccc2C)c1,-1,0.27
Cc1cnc(CNC(=O)Nc2cccc3c4c(oc23)CCCC4)cn1,5,-0.7
CC[C@@H](C(=O)Nc1ccc(OC)cc1)N1CCC(c2n[nH]cc2C)CC1,-1,0.2
CC(C)c1nc(C2CCCN(C(=O)C3CCCCN3C)C2)no1 (stereo not drawn),-28,5.23
CCc1cnccc1[C@H](C)NC(=O)N1CC2(CCOCC2)C1,3,-0.56
CC(C)c1nc(CN2CCC[C@H]2C(=O)O)cs1,-17,2.27
